# According to the supplement of paper PMC8728848:
# This is one part of the list.
# B1: FliD (Clostridium difficile) (protein)
# chain: MSSISPVRVTGLSGNFDMEGIIEASMIRDKEKVNKAKQDQQIVKWKQEIYRDIIKESKNLYDKYLNGDSPNSITNKKAYSATRITSSDESIIVAKGSAGAEKINYQFAVSQMAEPAKVTIKLNSSDPIVQQFPPNASGASSLNIGGVNIPISEQDTTSTIVSKINSLCADNDIRASYSEMTGELIISRKQTGSSSDIDLKVIGNDSLAGQIASDNGITFTTDASGTKSAVVYGKNLEADVTDDQGRVTHISKEQNSFKIDNIDYNVNSKGSAKLVSVTDTEEATKNMKAFVDDYNALMDKVYGLVTTKKSKDYPPLTDEQKDDMTTEEIEKWEKKAKEGILRNDDELRAFVEDIQSMFFGDADTIIALRKLGISEHENYNKKGQISFNADTFSKALIDDSDKVYKALAGYSSNYDDKGMFEKLKKIVFEYSGSSASKLTKKAGMENSSSASQNVYSKQIAEQERNISRLVEKMNDKEKRLYAKYSALESLLNKYSSQMNYFSQAQGN
# Tests used:
# Experiment in all cases: glycan array binding signal (z-score within array); higher = stronger binding
# Settings in all cases: glycan notation: IUPAC condensed, linker removed
# [1] = target: Fuc(a1-2)Gal(b1-4)GlcNAc(b1-3)Gal(b1-4)GlcNAc(b1-3)Gal(b1-4)GlcNAc
# In short: (§1)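 Negative Z-scores can be read as non-binding. The Z-score is calculated within each array and then averaged across arrays of one protein sequence at different concentrations or buffers and across linkers. Arrays, 3228 in all, were curated from the Consortium for Functional Glycomics database and kept only where the protein sequence was available.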
# [2] = target: Fuc(a1-2)Gal(b1-4)GlcNAc(b1-3)GalNAc
# In short: as §1
# [3] = target: Fuc(a1-2)Gal(b1-4)GlcNAc(b1-3)[Fuc(a1-2)Gal(b1-4)GlcNAc(b1-6)]GalNAc
# In short: as §1
# [4] = target: Fuc(a1-2)Gal(b1-4)GlcNAc(b1-3)[Fuc(a1-3)[Gal(b1-4)]GlcNAc(b1-6)]Gal(b1-4)Glc
# In short: as §1
# [5] = target: Fuc(a1-2)Gal(b1-4)GlcNAc(b1-6)GalNAc
# In short: as §1
# [6] = target: Fuc(a1-2)Gal(b1-4)GlcNAc6S
# In short: as §1
# [7] = target: Fuc(a1-2)Gal(b1-4)[Fuc(a1-3)]GlcNAc
# In short: as §1
# [8] = target: Fuc(a1-2)Gal(b1-4)[Fuc(a1-3)]GlcNAc(b1-2)Man(a1-3)[Fuc(a1-2)Gal(b1-4)[Fuc(a1-3)]GlcNAc(b1-2)Man(a1-6)]Man(b1-4)GlcNAc(b1-4)[Fuc(a1-6)]GlcNAc
# In short: as §1
# [9] = target: Fuc(a1-2)Gal(b1-4)[Fuc(a1-3)]GlcNAc(b1-2)[Fuc(a1-2)Gal(b1-4)[Fuc(a1-3)]GlcNAc(b1-4)]Man(a1-3)[Fuc(a1-2)Gal(b1-4)[Fuc(a1-3)]GlcNAc(b1-2)Man(a1-6)]Man(b1-4)GlcNAc(b1-4)GlcNAc
# In short: as §1
# [10] = target: Fuc(a1-2)Gal(b1-4)[Fuc(a1-3)]GlcNAc(b1-3)Gal(b1-4)[Fuc(a1-3)]GlcNAc
# In short: as §1
# [11] = target: Fuc(a1-2)Gal(b1-4)[Fuc(a1-3)]GlcNAc(b1-3)Gal(b1-4)[Fuc(a1-3)]GlcNAc(b1-3)Gal(b1-4)[Fuc(a1-3)]GlcNAc
# In short: as §1
# [12] = target: Fuc(a1-2)Gal(b1-4)[Fuc(a1-3)]GlcNAc(b1-3)GalNAc
# In short: as §1
# [13] = target: Fuc(a1-2)Gal(b1-4)[Fuc(a1-3)]GlcNAc(b1-3)[Neu5Ac(a2-6)Gal(b1-4)GlcNAc(b1-6)]Gal(b1-4)Glc
# In short: as §1
# [14] = target: Fuc(a1-2)Gal3S(b1-4)GlcNAc
# In short: as §1
# [15] = target: Fuc(a1-2)Gal6S(b1-3)GlcNAc
# In short: as §1
# [16] = target: Fuc(a1-2)Gal6S(b1-3)GlcNAc6S
# In short: as §1
# Fuc(a1-2)Gal6S(b1-4)Glc = target: Fuc(a1-2)Gal6S(b1-4)Glc
# In short: as §1
# [17] = target: Fuc(a1-2)Gal6S(b1-4)Glc6S
# In short: as §1
# Fuc(a1-2)[Gal(a1-3)]Gal = target: Fuc(a1-2)[Gal(a1-3)]Gal
# In short: as §1
# [18] = target: Fuc(a1-2)[Gal(a1-3)]Gal(b1-3)GalNAc
# In short: as §1
# [19] = target: Fuc(a1-2)[Gal(a1-3)]Gal(b1-3)GalNAc(b1-3)Gal(a1-4)Gal(b1-4)Glc
# In short: as §1
# [20] = target: Fuc(a1-2)[Gal(a1-3)]Gal(b1-3)GlcNAc
# In short: as §1
# [21] = target: Fuc(a1-2)[Gal(a1-3)]Gal(b1-3)GlcNAc(b1-2)Man(a1-3)[Fuc(a1-2)[Gal(a1-3)]Gal(b1-3)GlcNAc(b1-2)Man(a1-6)]Man(b1-4)GlcNAc(b1-4)GlcNAc
# In short: as §1
# [22] = target: Fuc(a1-2)[Gal(a1-3)]Gal(b1-3)GlcNAc(b1-2)Man(a1-3)[Fuc(a1-2)[Gal(a1-3)]Gal(b1-3)GlcNAc(b1-2)Man(a1-6)]Man(b1-4)GlcNAc(b1-4)[Fuc(a1-6)]GlcNAc
# In short: as §1
# [23] = target: Fuc(a1-2)[Gal(a1-3)]Gal(b1-3)GlcNAc(b1-3)GalNAc
# In short: as §1
# [24] = target: Fuc(a1-2)[Gal(a1-3)]Gal(b1-3)GlcNAc(b1-6)GalNAc
# In short: as §1
# [25] = target: Fuc(a1-2)[Gal(a1-3)]Gal(b1-4)Glc
# In short: as §1
# [26] = target: Fuc(a1-2)[Gal(a1-3)]Gal(b1-4)GlcNAc
# In short: as §1
# [27] = target: Fuc(a1-2)[Gal(a1-3)]Gal(b1-4)GlcNAc(b1-2)Man
# In short: as §1
# [28] = target: Fuc(a1-2)[Gal(a1-3)]Gal(b1-4)GlcNAc(b1-2)Man(a1-3)[Fuc(a1-2)[Gal(a1-3)]Gal(b1-4)GlcNAc(b1-2)Man(a1-6)]Man(b1-4)GlcNAc(b1-4)GlcNAc
# In short: as §1
binder,measurement,setting,value
B1,glycan array binding signal (z-score),[1],-0.143
same,glycan array binding signal (z-score),[2],-0.058
same,glycan array binding signal (z-score),[3],0.249
same,glycan array binding signal (z-score),[4],-0.179
same,glycan array binding signal (z-score),[5],-0.181
same,glycan array binding signal (z-score),[6],-0.089
same,glycan array binding signal (z-score),[7],-0.129
same,glycan array binding signal (z-score),[8],-0.162
same,glycan array binding signal (z-score),[9],-0.159
same,glycan array binding signal (z-score),[10],-0.208
same,glycan array binding signal (z-score),[11],-0.203
same,glycan array binding signal (z-score),[12],0.062
same,glycan array binding signal (z-score),[13],-0.249
same,glycan array binding signal (z-score),[14],-0.206
same,glycan array binding signal (z-score),[15],-0.154
same,glycan array binding signal (z-score),[16],0.242
same,glycan array binding signal (z-score),Fuc(a1-2)Gal6S(b1-4)Glc,-0.076
same,glycan array binding signal (z-score),[17],-0.07
same,glycan array binding signal (z-score),Fuc(a1-2)[Gal(a1-3)]Gal,-0.182
same,glycan array binding signal (z-score),[18],-0.128
same,glycan array binding signal (z-score),[19],0.02
same,glycan array binding signal (z-score),[20],1.88
same,glycan array binding signal (z-score),[21],-0.206
same,glycan array binding signal (z-score),[22],-0.168
same,glycan array binding signal (z-score),[23],-0.226
same,glycan array binding signal (z-score),[24],-0.221
same,glycan array binding signal (z-score),[25],-0.107
same,glycan array binding signal (z-score),[26],-0.224
same,glycan array binding signal (z-score),[27],-0.225
same,glycan array binding signal (z-score),[28],-0.031
